According to PubChem BioAssay AID652104 (National Center for Advancing Translational Sciences (NCATS), 2013):
The whole screen tested about 410,000 compounds, of which about 7,200 (1.8%) were called active. This list was built around the results that the source calls inconclusive (neither active nor inactive); the mix of calls is not that of the screen. The call rests on the fitted dose curve; in most records, active means well fitted activation curve with a large enough effect; inconclusive means small, poorly fitted or top-dose-only effect, or another doubt; inactive means no such curve, though single readings can be large or run the other way. No potency is given beside an inconclusive call; the fits are too rough.

assay: qHTS of TDP-43 Inhibitors; settings: TDP-43 expressing yeast growth rescue, BacTiter-Glo, 24 h; growth rescue (activation): at 46.1 µM (top of the series) unless noted; further: nearly all actives have a fitted effect of over 50% in size; on growth rescue (activation): % of control where 0% means no effect
Method in brief: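 Readout is BacTiter-Glo luminescence of cell growth, so inhibitors register as activators. TDP-43-expressing yeast at OD600=0.02 in galactose medium, after raffinose pregrowth to mid-log, were incubated with compound for 24 hr at 30 deg C.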
Potency means the concentration at half of the fitted maximal effect; tags describe the fitted curve by direction and shape.

| Compound | Potency | growth rescue (activation) |
| --- | --- | --- |
| Cc1ccc(-c2csc3ncnc(N4CCN(S(=O)(=O)c5cccs5)CC4)c23)cc1 | active: 4.47 µM | – |
| CCc1ccc(NC(=O)c2cc3c(=O)n(Cc4cccnc4)ccc3nc2C)cc1 | inactive | – |
| COc1ccc(-c2ccc(=O)n(Cc3ccc([N+](=O)[O-])cc3)n2)cc1 | inactive | – |
| Cc1cc(C)n2nc(SCCOc3ccccc3)nc2n1 | inconclusive [activator, single point] | – |
| COc1cccc(CNC(=S)Nc2cc(C)ccc2C)c1 | inconclusive [activator, partial curve] | – |
| FC(F)C(F)(F)C(F)(F)C(F)(F)c1cc(-c2ccccc2)n[nH]1 | inconclusive [activator, single point] | – |
| Cc1cc(=O)n(CC(=O)N2CCN(c3ccc(F)cc3)CC2)c2c1c(C)nn2C | active: 11.2 µM | – |
| COc1ccc(OC)c(C(=O)c2coc3ccc(OC(C)=O)cc23)c1 | – | inactive: -14.9% [at 0.397 µM] |
| COC(=O)c1ccccc1NC(=S)NC(=O)c1ccccc1F | inconclusive [activator, partial curve] | – |
| Cc1ccc(Cn2c(=S)[nH]c3ccc(N4CCOCC4)cc3c2=O)o1 | inconclusive [activator, partial curve] | – |
| Cc1cc(OCc2cc(C(=O)NCC3(C)COC3)no2)cc(C)c1Cl | inconclusive [activator, single point] | – |
| COc1cc(/C=C/c2nc(C#N)c(N3CCC(C)CC3)o2)cc(OC)c1OC | inconclusive [activator, partial curve] | – |
| Cc1cc2c(cc(C(=O)OC(C)C(=O)NCc3ccc(F)cc3)n2C)o1 (stereo not drawn) | inactive | – |
| COc1ccc(C2CC(=O)Oc3cc4c(cc32)OCO4)cc1 (stereo not drawn) | inconclusive [activator, single point] | – |
| Cc1cccc2sc(NC(=O)C3c4ccccc4Oc4ccccc43)nc12 | inconclusive [activator, full curve] | – |
| Nc1nonc1-n1nnc(C(=O)c2ccccc2)c1-c1ccccc1 | inconclusive [activator, single point] | – |
| O=C(CSc1c2c(nc3cc(Cl)ccc13)CCCC2)NCc1ccccc1Cl | inconclusive [activator, partial curve] | – |
| CC(C)C1C(=O)N(Cc2cn(CCC3OCCO3)nn2)CCS(=O)(=O)N1Cc1ccc(-c2ccccc2)cc1 (stereo not drawn) | inconclusive [activator, single point] | – |
| O=C(Nc1ccccc1N1CCOCC1)c1cc(-c2ccncc2)nc2ccccc12 | inconclusive [activator, partial curve, poor fit] | – |
| COc1ccc(C/C(=N\O)c2ccc(OC)cc2)cc1 | active: 14.1 µM | – |
| CC(C)(C)N(Cc1ccccc1)C(=O)COC(=O)c1ccc([N+](=O)[O-])o1 | inconclusive [activator, partial curve] | – |
| O=C1CC(SCc2nc3ccccc3[nH]2)C(=O)N1c1cccc(Cl)c1 (stereo not drawn) | inconclusive [activator, single point] | – |

| Compound | Potency | growth rescue (activation) |
| --- | --- | --- |
| CSc1ncc(C(=O)N2CCN(c3cccc(C(F)(F)F)c3)CC2)c(C)n1 | inconclusive [activator, partial curve] | – |
| Cc1ccc(C2=NN(C(=O)CCl)C(c3ccco3)C2)o1 (stereo not drawn) | inconclusive [activator, single point] | – |
| COc1ccc(CC(=O)Oc2ccccc2C)cc1 | inconclusive [activator, single point] | – |
| O=C(COc1ccc2ccccc2c1)Nc1cccc2cccnc12 | inconclusive [activator, partial curve] | – |
| COc1cc2c(=O)n(C)c3ccccc3c2cc1OC | inconclusive [activator, partial curve] | – |
| CN1/C(=C\C(=O)c2cccnc2)C(C)(C)c2ccccc21 | inactive | – |
| OCCCn1c(C2CCCN2c2nc(-c3ccc(Cl)cc3)cs2)nc2cc(C(F)(F)F)ccc21 (stereo not drawn) | inconclusive [activator, single point] | – |
| O=C(c1ccco1)N1CCN(Cc2cc(=O)c(OCc3ccccc3F)co2)CC1 | inconclusive [activator, full curve, poor fit] | – |
| CC(=O)SC1CC(=O)N(c2ccc(C(C)(C)C)cc2)C1=O (stereo not drawn) | inconclusive [activator, single point] | – |
| Cc1cc(O)ccc1NC(=S)NC(=O)c1cncc(Br)c1 | inconclusive [activator, single point] | – |
| Cc1occc1C(=O)n1nnc2ccccc21 | active: 15.8 µM | – |
| CC(Sc1oc(-c2cccs2)nc1S(=O)(=O)c1ccccc1)c1ccccc1 (stereo not drawn) | inactive | – |
| CCc1ccc(Oc2c(C(F)(F)F)oc3c(CN4CCCC(C)C4)c(O)ccc3c2=O)cc1 (stereo not drawn) | inconclusive [activator, partial curve] | – |
| CN(C)S(=O)(=O)c1cccc(NC(=S)Nc2ccc3cn[nH]c3c2)c1 | inconclusive [activator, single point] | – |
| CCc1ccc(NC(=O)c2nn(-c3ccc(OC)cc3)c(=O)c3c2c2ccccc2n3C)cc1 | inactive | – |
| CC(C)CCn1c(NCCc2ccccc2)nc2c1c(=O)n(C)c(=O)n2C | inconclusive [activator, single point] | – |
| O=C(Nc1ccccc1)c1csc(-c2ccccc2)n1 | inconclusive [activator, single point] | – |
| CS(=O)(=O)N1CCC(Oc2ccccc2C(=O)N2CCC[C@H]2CO)CC1 | inactive | – |
| COc1ccccc1/C=C/C=N/n1c(-c2ccc(Cl)cc2Cl)n[nH]c1=S | inconclusive [activator, partial curve] | – |
| CSc1ccc(Cl)c(C(=O)OCC(=O)NCc2ccco2)c1 | inconclusive [activator, single point] | – |
| CC(=O)COc1ccc2c(C)c(-c3ccccc3)c(=O)oc2c1 | inconclusive [activator, partial curve] | – |
